According to publication PMC6693284:
These are yes or no findings as the source states them, for the method shown. In cells and extracts the contact can be indirect. Some results given as binding are weak or reduced against the parent protein; the word gives no strength.

By UniProt entry, the sequences of proteins in these tests, tags left out. Where a name states a change or a piece, a line headed by the entry shows the natural chain unless it says otherwise. Chains listed by the source or under a name are the forms on record and can include a tag or linker. Residues count along the entry.
ERα-36 (endogenous) (human (endogenous in MDA-MB-231, MCF-7, MCF-10A)) (P03372-4, form named): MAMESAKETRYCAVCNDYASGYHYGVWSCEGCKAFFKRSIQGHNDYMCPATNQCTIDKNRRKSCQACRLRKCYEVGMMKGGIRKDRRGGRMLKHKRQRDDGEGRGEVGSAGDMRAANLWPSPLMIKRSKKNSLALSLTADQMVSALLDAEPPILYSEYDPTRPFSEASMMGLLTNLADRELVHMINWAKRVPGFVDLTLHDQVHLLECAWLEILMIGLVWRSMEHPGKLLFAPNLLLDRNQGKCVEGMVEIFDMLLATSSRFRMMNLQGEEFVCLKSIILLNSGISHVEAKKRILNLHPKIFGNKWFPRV
UniProt P40763: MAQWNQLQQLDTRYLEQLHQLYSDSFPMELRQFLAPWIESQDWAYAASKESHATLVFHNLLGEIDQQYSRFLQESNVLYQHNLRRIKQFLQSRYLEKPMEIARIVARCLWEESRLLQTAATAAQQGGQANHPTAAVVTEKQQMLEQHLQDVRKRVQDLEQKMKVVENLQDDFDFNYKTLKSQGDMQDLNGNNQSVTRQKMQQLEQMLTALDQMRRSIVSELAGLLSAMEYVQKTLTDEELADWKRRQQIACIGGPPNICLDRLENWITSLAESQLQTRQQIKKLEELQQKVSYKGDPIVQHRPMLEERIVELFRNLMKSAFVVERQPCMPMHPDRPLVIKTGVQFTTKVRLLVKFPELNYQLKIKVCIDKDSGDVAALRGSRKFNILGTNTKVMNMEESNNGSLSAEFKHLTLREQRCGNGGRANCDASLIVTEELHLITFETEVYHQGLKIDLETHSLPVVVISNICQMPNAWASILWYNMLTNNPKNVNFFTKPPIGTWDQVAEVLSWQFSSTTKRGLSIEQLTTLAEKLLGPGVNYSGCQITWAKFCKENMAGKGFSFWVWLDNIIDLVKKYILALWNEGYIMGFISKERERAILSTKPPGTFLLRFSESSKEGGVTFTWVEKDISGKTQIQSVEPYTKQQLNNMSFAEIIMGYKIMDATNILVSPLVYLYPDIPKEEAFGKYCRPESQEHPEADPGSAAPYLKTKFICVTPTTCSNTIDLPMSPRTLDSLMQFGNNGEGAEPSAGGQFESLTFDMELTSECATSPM
Flag-tagged STAT3: residues 1-769 of P40763
UniProt Q09472: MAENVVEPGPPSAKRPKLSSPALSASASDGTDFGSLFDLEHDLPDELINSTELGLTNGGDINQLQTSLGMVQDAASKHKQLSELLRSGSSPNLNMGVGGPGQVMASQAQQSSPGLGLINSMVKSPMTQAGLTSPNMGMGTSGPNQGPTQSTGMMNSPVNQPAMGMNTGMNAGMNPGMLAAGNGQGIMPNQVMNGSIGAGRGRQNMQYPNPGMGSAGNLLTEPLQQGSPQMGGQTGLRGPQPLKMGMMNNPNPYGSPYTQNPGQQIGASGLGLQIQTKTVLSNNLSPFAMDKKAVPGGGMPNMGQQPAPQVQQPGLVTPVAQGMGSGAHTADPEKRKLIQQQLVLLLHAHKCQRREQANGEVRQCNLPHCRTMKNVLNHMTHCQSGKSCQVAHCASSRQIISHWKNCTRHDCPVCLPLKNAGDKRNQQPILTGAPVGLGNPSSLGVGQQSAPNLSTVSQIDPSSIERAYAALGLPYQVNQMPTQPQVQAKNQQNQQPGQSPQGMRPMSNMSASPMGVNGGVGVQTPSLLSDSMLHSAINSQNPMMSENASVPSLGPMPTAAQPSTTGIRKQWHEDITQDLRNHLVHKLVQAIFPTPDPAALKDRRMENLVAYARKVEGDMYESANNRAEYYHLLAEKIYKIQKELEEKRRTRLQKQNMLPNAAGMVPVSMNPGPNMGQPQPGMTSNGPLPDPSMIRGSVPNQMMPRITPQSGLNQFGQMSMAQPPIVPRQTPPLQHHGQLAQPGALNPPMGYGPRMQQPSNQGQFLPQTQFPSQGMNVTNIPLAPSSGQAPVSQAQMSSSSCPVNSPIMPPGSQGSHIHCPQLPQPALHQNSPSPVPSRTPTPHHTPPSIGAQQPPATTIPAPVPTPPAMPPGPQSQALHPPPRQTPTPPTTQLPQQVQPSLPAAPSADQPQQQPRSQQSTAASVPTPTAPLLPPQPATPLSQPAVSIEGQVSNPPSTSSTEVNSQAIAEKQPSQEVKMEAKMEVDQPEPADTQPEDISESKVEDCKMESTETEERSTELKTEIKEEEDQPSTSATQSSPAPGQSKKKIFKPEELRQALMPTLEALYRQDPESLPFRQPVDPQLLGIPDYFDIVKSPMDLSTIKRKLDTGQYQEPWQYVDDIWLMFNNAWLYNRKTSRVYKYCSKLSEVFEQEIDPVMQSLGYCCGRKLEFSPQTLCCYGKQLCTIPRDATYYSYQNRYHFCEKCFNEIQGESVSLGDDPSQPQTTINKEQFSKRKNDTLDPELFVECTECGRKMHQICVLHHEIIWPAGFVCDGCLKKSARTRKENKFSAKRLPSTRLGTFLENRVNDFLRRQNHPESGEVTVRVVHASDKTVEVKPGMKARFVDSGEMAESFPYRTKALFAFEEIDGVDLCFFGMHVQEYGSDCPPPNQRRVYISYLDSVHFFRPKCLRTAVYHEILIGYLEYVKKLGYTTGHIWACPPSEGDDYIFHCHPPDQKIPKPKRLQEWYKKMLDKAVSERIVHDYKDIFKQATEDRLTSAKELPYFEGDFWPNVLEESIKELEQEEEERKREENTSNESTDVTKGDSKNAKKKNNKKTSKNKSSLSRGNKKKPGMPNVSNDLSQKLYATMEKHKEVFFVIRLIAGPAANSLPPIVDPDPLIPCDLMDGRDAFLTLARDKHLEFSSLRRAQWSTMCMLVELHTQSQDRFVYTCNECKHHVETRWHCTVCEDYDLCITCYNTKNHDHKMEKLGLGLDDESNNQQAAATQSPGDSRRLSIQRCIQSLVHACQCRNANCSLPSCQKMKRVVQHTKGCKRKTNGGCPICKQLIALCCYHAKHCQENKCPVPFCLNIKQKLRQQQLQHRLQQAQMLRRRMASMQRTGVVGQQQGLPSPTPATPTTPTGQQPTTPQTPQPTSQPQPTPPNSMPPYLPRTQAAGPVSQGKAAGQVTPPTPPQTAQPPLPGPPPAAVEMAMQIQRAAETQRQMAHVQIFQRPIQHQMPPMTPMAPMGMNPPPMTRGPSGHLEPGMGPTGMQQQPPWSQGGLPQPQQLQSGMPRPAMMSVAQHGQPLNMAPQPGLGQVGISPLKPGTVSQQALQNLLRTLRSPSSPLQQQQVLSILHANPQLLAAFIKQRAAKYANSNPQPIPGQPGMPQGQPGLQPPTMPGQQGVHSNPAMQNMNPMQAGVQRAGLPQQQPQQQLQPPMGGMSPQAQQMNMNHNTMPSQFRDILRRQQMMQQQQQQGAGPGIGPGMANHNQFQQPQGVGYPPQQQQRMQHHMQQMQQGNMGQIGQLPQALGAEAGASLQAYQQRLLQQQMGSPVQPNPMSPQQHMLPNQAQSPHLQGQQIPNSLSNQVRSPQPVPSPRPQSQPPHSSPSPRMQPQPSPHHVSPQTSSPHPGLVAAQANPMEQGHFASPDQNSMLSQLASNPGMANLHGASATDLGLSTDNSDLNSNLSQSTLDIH

Columns and labels:
[1] = target: ERα-36 (endogenous) (human (endogenous in MDA-MB-231, MCF-7, MCF-10A)) (UniProt P03372); test: co-IP; MDA-MB-231, MCF-7 and MCF-10A cell lysates precipitated with an anti-ERα antibody and probed with an anti-STAT3 antibody
[2] = target: ERα-36 (endogenous) (human (endogenous in MDA-MB-231, MCF-7, MCF-10A)) (UniProt P03372); test: co-IP; quiescent MDA-MB-231 cells with and without IL-6 for the indicated times; extracts precipitated with anti-ERα-36, blotted for STAT3, then pSTAT3 and acetyl-STAT3
[3] = target: Flag-tagged STAT3 (human) (UniProt P40763); test: co-IP; MDA-MB-231 cells cotransfected with Myc-ERα-36 and Flag-STAT3 (or deletion mutants); lysates 48 h after transfection; precipitated with Flag or Myc antibody, blotted with the other
[4] = target: ERα-36 (endogenous) (human (endogenous in MDA-MB-231, MCF-7, MCF-10A)) (UniProt P03372); test: co-IP; quiescent MDA-MB-231 cells with and without IL-6 for the indicated times; extracts precipitated with anti-ERα-36 or anti-p300, blotted with anti-p300 and/or anti-ERα-36
[5] = target: ERα-36 (endogenous) (human (endogenous in MDA-MB-231, MCF-7, MCF-10A)) (UniProt P03372); test: co-IP; quiescent MDA-MB-231 cells with and without IL-6 in the presence of TAM (10 μM) for 1 h; precipitated with anti-ERα-36, blotted with anti-p300
[6] = target: ERα-36 (endogenous) (human (endogenous in MDA-MB-231, MCF-7, MCF-10A)) (UniProt P03372); test: co-IP; MDA-MB-231 cells transduced with Ad-dnERα-36 (control Ad-GFP), quiesced, treated with IL-6; precipitated with anti-ERα-36, blotted with anti-p300

With “STAT3 (endogenous) (from UniProt P40763 1-770)” the binding [1] was “binds” and the binding [2] was “binds”.

For “acetylated STAT3 (Lys-685), endogenous (from UniProt P40763 1-770)”, the binding [2] was “binds”.

“phosphorylated STAT3 (Tyr-705), endogenous (from UniProt P40763 1-770)” was tested, and the binding [2] was “binds”.

With “Myc-tagged ERα-36 (from UniProt P03372-4 1-310)” the binding [3] was “binds”.

For “p300 (endogenous) (from UniProt Q09472 1-2414)”, the binding [4] was “binds”, the binding [5] was “no binding (condition: with TAM (10 μM))” and the binding [6] was “no binding (condition: cells transduced with Ad-dnERα-36)”.
